Screen size: about 48,000 compounds; about 120 (0.25%) were called active. Inconclusive results (about 4%) are left out. The call rests on the fitted dose curve; in most records, active means well fitted activation curve with a large enough effect; inconclusive means small, poorly fitted or top-dose-only effect, or another doubt; inactive means no such curve, though single readings can be large or run the other way. The list shows a part of the results.
Experiment: Primary qHTS for Identification of Small Molecule Activators of Huntingtin-Antisense Promoter Activity; further: nearly all actives have a fitted effect of over 55% in size
Settings: HEK293 HTT-AS promoter firefly luciferase reporter, 24 h; series mostly up to 57.5 µM; activity change, positive = activation: at the top concentration
Summary of the method: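 HEK293 luciferase promoter-reporter cells (2,500/well) plated 24 h, then compounds added at up to 57.5 uM final for 24 h at 37 °C. Firefly luminescence by Dual-Glo, normalized to vehicle (0%) and zero RLU (-100%).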

Activity change, positive = activation, inactive:
Brc1cccc(-c2nn(-c3ccccc3)c3c2cnc2cc4c(cc23)OCO4)c1 -10.8%
O=C(c1cccs1)N1CCCc2cc(NS(=O)(=O)c3ccc(Br)cc3)ccc21 -40.8%
CCc1cccc(C)c1NC(=O)C1CCN(S(=O)(=O)c2cc(Br)cc3c2N(C(C)=O)CC3)CC1 6.01%
COc1ccc(NC(=O)Nc2cccc(-c3noc(C)n3)c2)cc1 -16.1%
Cc1ccc(C)c(CN2CCC(CNC(=O)C(CC(C)C)N3Cc4ccccc4C3=O)CC2)c1 (stereo not given) -30.1%
COCCn1c(CNC(=O)c2ccccc2C)nc2cccnc21 -12.5%
COc1cccc(-n2ccnc2SCC(=O)Nc2cccc3ccccc23)c1 -30.1%
COc1ccc(-n2c(CC3C(=O)Nc4ccc(C)cc43)nc3ccccc3c2=O)cc1 (stereo not given) -1.8%
O=C(NCc1ccccc1Cl)c1ccc2c(c1)ncn2-c1cccc(F)c1 -2.01%
CCc1ccc(C2c3c(-c4cc(C)ccc4O)n[nH]c3C(=O)N2CCO)cc1 (stereo not given) -20.9%
Cn1c(SCC(=O)N2CCOCC2)ncc(C(=O)Nc2ccc(F)cc2)c1=O -19.6%
Cn1c(=O)c2c(ncn2CCO)n(C)c1=O -14.6%
CCCSc1nc2sc3c(c2c(=O)n1-c1ccc(C)cc1)CCCC3 -21%
CCOC(=O)c1c(S(=O)(=O)NCC(=O)Nc2cccc(SC)c2)c(C)n(C)c1C -15.6%
COc1ccc(NC(=O)CCCS(=O)(=O)c2nc(-c3ccccc3OC)cc(C(F)(F)F)n2)c(OC)c1 -0.42%
CC1=C(c2ccc(C(C)C)cc2)S(=O)(=O)NC1=NCc1ccc(OC(C)C)cc1 -8.97%
Cc1ccc(OCCn2c(CNc3ccccc3C)nc3ccccc32)cc1 23.3%
Cn1c(C(=O)NCc2ccccc2Cl)cc2sc(Cl)cc21 -9.29%
Cc1cc(NC(=O)c2cnn(-c3ccccc3)c2-n2cccc2)ccc1Br 1.52%
COc1ccc(-c2csc3ncnc(Nc4ccc(OC)cc4OC)c23)cc1 -5.29%
COc1cccc(-c2nc3c(C#N)c[nH]n3c2NC2CCCCC2)c1 -5.79%
CCc1cccc(NC(=O)Cn2c(=O)n(CC3CCC(C(=O)NC)CC3)c(=O)c3sccc32)c1 (stereo not given) -24.9%
COc1cccc(CNC(=O)CN(c2ccc(C)cc2)S(=O)(=O)N(C)C)c1OC -11.4%
COc1cccc(CNC(=O)Cn2c(=O)cc(C)c3c(C)nn(C)c32)c1OC -11.3%
N#CC1=C(N)N(c2ccc(Cl)cc2)C2=C(C(=O)CCC2)C1c1cc(CN2CCOCC2)cs1 (stereo not given) -8.13%
O=C(NC1CCCCC1)c1ccc2c(c1)N(Cc1ccc(F)cc1)C(=O)c1ccccc1S2(=O)=O -24.4%
COc1cc(NS(=O)(=O)c2cc(Br)cc3c2N(C(C)=O)C(C)C3)cc(OC)c1 (stereo not given) -40.3%
Cc1cccc(N(C)C(=O)C2CCC(CNS(=O)(=O)c3cccc4nsnc34)CC2)c1 (stereo not given) -19.1%
CCCSC1=NC2(CCN(C(=O)NC3CCCCC3)CC2)N=C1c1ccc(OC)cc1 -21.9%
O=c1c2c3c(sc2nnn1CCCCOc1ccc(Cl)cc1)CCCC3 -2.06%
COc1cc(-c2noc(-c3cc4cccc(C)c4oc3=O)n2)cc(OC)c1OC -9.59%
CCOc1ccccc1-n1c(N)c(C(=O)OC)c2nc3ccccc3nc21 -24.7%
COc1ccc(-c2nsc(NC(=O)c3oc4ccc(Cl)cc4c3C)n2)cc1 -3.85%
O=C(Nc1ccc(F)cc1)c1nc(SCc2ccccc2F)ncc1Cl -21.8%
N#C/C(=C/c1ccc(O)cc1)c1nc(-c2ccc(-c3ccccc3)cc2)cs1 -14.5%
Cc1nc(-c2cccc(F)c2)sc1CCNC(=O)Cc1ccc(F)cc1 -29.7%
CC(C)c1ccc(-c2noc(SCC(=O)N3CCN(c4ccccc4F)CC3)n2)cc1 -7.49%
COc1ccc(Cn2ccn(CC(=O)Nc3cc(C)ccc3C)c(=O)c2=O)cc1 -13.3%
Cc1ccc(NC(=O)Cn2c(=O)ccc3cc(S(=O)(=O)N4CCCC4)ccc32)cc1C -25.5%
Cc1c(C(=O)N2CCC(C(=O)Nc3ccc(F)c(Cl)c3)CC2)sc2nc[nH]c(=O)c12 -12.4%
Cc1cc2nn(-c3ccc(F)cc3)nc2cc1NC(=O)c1ccc(C(C)(C)C)cc1 -8.3%
COc1cc(CN(C(=O)c2ccccc2)c2ccccn2)cc(OC)c1OC 25.3%
COc1ccc(-c2cn3cccnc3n2)cc1NC(=O)c1ccccc1C(F)(F)F 3.48%
COc1ccc2c(c1)c(=O)c(C(=O)c1ccc(F)cc1)cn2CC(=O)Nc1ccc2c(c1)OCCO2 -22.9%
COc1cc(C(=O)Nc2cc(C)c(O)c(-c3nc4cc(Cl)ccc4o3)c2)cc(OC)c1OC -9.7%
CCN(CC)C(=O)c1sc2c(c1C)c(=O)n(-c1ccccc1)c(=O)n2CC(=O)N(CC)c1cccc(C)c1 -5.16%
Cc1cn2c(=O)cc(COC(=O)COc3ccc(C)c(C)c3)nc2s1 -7.48%
CCCOc1ccc(C(=O)N(Cc2ccc(Cl)cc2)Cc2ccco2)cc1 -28.2%
C=C1C(=CC=C2CCC[C@]3(C)[C@@H]([C@H](C)CCCC(C)(C)O)CC[C@@H]23)C[C@@H](O)C[C@@H]1O -9.69%
Cc1ccc(CNC(=O)c2ccc3c(c2)NC(=O)C(CS(=O)(=O)Cc2cccc(C)c2)N3)cc1 (stereo not given) -17.8%
COc1cc(NC(=O)CCS(=O)(=O)c2ccc(Br)cc2)cc(OC)c1 -11.9%
CC(CCc1ccc2c(c1)OCO2)NN (stereo not given) 0.758%
CN(C(=O)CSc1nncn2c1cc1occc12)c1ccccc1 -23.6%
CCCCN(C)C(=O)CN1C(=O)c2cccnc2Oc2ccc(Cl)cc21 -12.5%
Cc1ccc(Cl)cc1NC(=O)Cn1nnc2sc3c(c2c1=O)CCC(C(C)(C)C)C3 (stereo not given) -19.9%
Cc1cccc(N(C)S(=O)(=O)c2nnc(NC(=O)C(C)(C)C)s2)c1 -35.3%
C[C@@]1(c2cc(-c3cncnc3)c(F)cc2F)CCSC(N)=N1 -29.1%
COc1ccc(CCNc2ncnc3c2cnn3-c2ccc(F)cc2)cc1 -20.2%
Brc1ccc(CN2CCc3nc(Nc4ccccc4)ncc3C2)s1 -2.22%
O=C(c1ccc2c(c1)N(Cc1ccccc1F)C(=O)c1ccccc1S2=O)N1CCC(Cc2ccccc2)CC1 (stereo not given) -41.7%
COc1ccc(OC)c(CNC(=O)c2cc3c(=O)oc4ccc(C)cc4c3s2)c1 -4.08%
COc1ccc(N(Cc2cc3cc(OC)ccc3[nH]c2=O)C(=O)c2cccc(Cl)c2)cc1 20.3%
COc1cc([C@@H]2c3cc4c(cc3[C@@H](O[C@@H]3O[C@@H]5CO[C@@H](c6cccs6)O[C@@H]5[C@H](O)[C@@H]3O)[C@H]3COC(=O)[C@H]23)OCO4)cc(OC)c1O -44%
COc1cccc(CNC(=O)Nc2cn(CC(C)C)c(=O)c3ccccc23)c1 -11.5%
COc1ccc(-c2oc3ncn4nc(-c5ccccc5OC)nc4c3c2-c2ccc(OC)cc2)cc1 -7.47%
CCOc1ccc(-n2c(-c3ccc(Br)cc3)cc3c2CC(C)(C)CC3=O)cc1 -22.5%
CCOC(=O)c1cc(-c2ccc(F)cc2)n(CCC(=O)Nc2nc3cc(C)c(C)cc3s2)c1C -9.4%
Cc1nnc2c3ccccc3nc(Nc3ccc(F)cc3Cl)n12 0.278%
Cc1nc(N2CCCC2)ncc1C(=O)Nc1ccc(OC(F)(F)F)cc1 -26.5%
COc1ccc(OCc2ccc(-c3nc(C#N)c(NCc4ccc(F)cc4)o3)o2)cc1 -23.1%
COc1cc(OC)cc(-n2c(=O)c3sccc3n(Cc3cc(=O)n4c(C)cccc4n3)c2=O)c1 -4.24%
Cc1ccc2c(CC(=O)Nc3nnc(C(C)C)s3)coc2c1C 12.3%
COc1cc(CNC(=O)c2sc3ncccc3c2-n2cccc2)cc(OC)c1OC -18.9%
COc1cccc(C2CC(=O)Nc3cc(OC)c(OC)c(OC)c32)c1OC(C)C (stereo not given) -11.2%
Cc1cccc(Cn2c(=O)n(CC3CCC(C(=O)NC(C)C)CC3)c(=O)c3sccc32)c1 (stereo not given) -11.3%
CSc1ccc(CCNC(=O)C2=C(C)C(=O)OC23CCCCC3)cc1 -12.3%
CCC1NC(=O)c2cc(S(N)(=O)=O)c(Cl)cc2N1 (stereo not given) -12.4%
Cc1nn(-c2ccccc2)c(OC(=O)c2cccc(Br)c2)c1S(=O)(=O)c1ccccc1 -21.9%
COc1ccccc1CN1CCC(CNS(=O)(=O)c2cc(-c3onc(C)c3C)ccc2OC)CC1 -15.3%
N#Cc1nc(-c2ccc(COc3ccccc3)o2)oc1NCc1cccnc1 -20.7%
COC(=O)c1ccc(OCC2c3cc(OC)c(OC)cc3CCN2C(=O)c2ccccc2C)cc1 (stereo not given) -22.8%
CC(=O)Oc1ccc(C2(c3ccc(OC(C)=O)cc3)C(=O)Nc3ccccc32)cc1 -51.8%
Cc1ccc(-c2nnc(Nc3ccc(Br)cc3)c3ccccc23)cc1S(=O)(=O)NCC1CCCO1 (stereo not given) 10.8% [at 11.5 µM, percent change from vehicle, -100% = no light]
Cc1nc(N2CCCC2)c2c(C(=O)N3CCN(c4ccc(F)cc4)CC3)c(C)oc2n1 -9.14%
Cc1cccc(N2CCN(C(=O)Cn3ncc4c3-c3cc(C)ccc3OC4)CC2C)c1 (stereo not given) -34%
Cc1ncc(COP(=O)(O)O)c(C=O)c1O -5.48%
CCOc1ccc(C(=O)NCc2nnnn2-c2ccc(C)c(C)c2)cc1OCC -9.19%
Cc1cc(C)c(NC(=O)CCN2C(=O)c3ccccc3Sc3ncccc32)c(C)c1 -19.4%
Cc1ccc(-n2c(=O)c3ccc(C(=O)NCc4ccccc4Cl)cc3n(CC(=O)Nc3cccc(Cl)c3)c2=O)cc1 -6.87%
Cc1nc2cc(C(=O)NCCC3=CCCCC3)ccc2n1-c1ccc(Br)cc1 -8.39%
CCc1nn(CC(=O)NCC(C)c2ccccc2)c(=O)c2cc3occc3n12 (stereo not given) -13.2%
COC(=O)c1cc2c(cc1NC(=O)c1cnn(-c3ccccc3)c1-n1cccc1)OCO2 7.09%
CSc1nc(Nc2ccc(C)cc2C)cc(-c2ccccc2)n1 -22.1%
CCOC(=O)CNC(=O)CSc1cn(CC(=O)N2CCCCCC2)c2ccccc12 -17.4%
CN(Cc1ccccc1)C(=O)C1CCN(S(=O)(=O)c2ccc3c(c2)oc(=O)n3C)CC1 -27.3%
